In brackets after ≈: the same amount, converted by molar mass. Several values for one entry are separate records, joined by “and”; a condition that tells them apart may be missing. Identical values can stand only once. MIC of E. coli strains with or without a β-lactamase plasmid, in LB (broth microdilution, 22 h, 37 °C, OD600 below 0.2; fosfomycin by agar dilution); pBAD18 genes induced with arabinose where stated. Higher = less susceptible. No active / inactive call. Values are arithmetic means of replicate MICs, so they fall between dilution steps. Colistin is a mixture; one drawing stands for it.
Key:
Escherichia coli ECOR27 = test: Broth microdilution in LB (fosfomycin: agar dilution), 22 h at 37 °C; MIC = lowest dose with OD600 below 0.2.
Escherichia coli J53 = test: as above
Escherichia coli ECOR53 = test: as above
Escherichia coli ECOR61 = test: as above
[1] = tested on: Escherichia coli BW25113 (arabinose: 0.5% w/v); test: as above
Escherichia coli ECOR49 = test: as above
Escherichia coli ECOR47 = test: as above
Escherichia coli ECOR70 = test: as above
Escherichia coli ECOR01 = test: as above
Escherichia coli ECOR35 = test: as above
Escherichia coli ECOR42 = test: as above
[2] = tested on: Escherichia coli BW25113 (arabinose: 0.5% w/v); test: Agar dilution on LB agar with 25 mg/L glucose-6-phosphate.

C[C@@H](O)[C@H]1C(=O)N2C(C(=O)O)=C(S[C@@H]3CN[C@H](C(=O)Nc4cccc(C(=O)O)c4)C3)[C@H](C)[C@H]12 [ertapenem]
Conditions | MIC
Escherichia coli ECOR01, plasmid: none | 0.015 µg/mL (≈ 0.0315 µM)
Escherichia coli ECOR01, plasmid: pUN4 empty | 0.0175 µg/mL (≈ 0.0368 µM)
Escherichia coli ECOR01, plasmid: pUN4 with blaCTX-M-15 | 0.227 µg/mL (≈ 0.477 µM)
Escherichia coli ECOR01, plasmid: pUN4 with blaOXA-48 | 0.146 µg/mL (≈ 0.307 µM)
Escherichia coli ECOR27, plasmid: none | 0.00967 µg/mL (≈ 0.0203 µM)
Escherichia coli ECOR27, plasmid: pUN4 empty | 0.0175 µg/mL (≈ 0.0368 µM)
Escherichia coli ECOR27, plasmid: pUN4 with blaCTX-M-15 | 0.125 µg/mL (≈ 0.263 µM)
Escherichia coli ECOR27, plasmid: pUN4 with blaOXA-48 | 3.33 µg/mL (≈ 7.01 µM)
Escherichia coli ECOR35, plasmid: none | 0.007 µg/mL (≈ 0.0147 µM)
Escherichia coli ECOR35, plasmid: pUN4 empty | 0.015 µg/mL (≈ 0.0315 µM)
Escherichia coli ECOR35, plasmid: pUN4 with blaCTX-M-15 | 0.0708 µg/mL (≈ 0.149 µM)
Escherichia coli ECOR35, plasmid: pUN4 with blaOXA-48 | 1.08 µg/mL (≈ 2.28 µM)
Escherichia coli ECOR42, plasmid: none | 0.113 µg/mL (≈ 0.238 µM)
Escherichia coli ECOR42, plasmid: pUN4 empty | 0.0175 µg/mL (≈ 0.0368 µM)
Escherichia coli ECOR42, plasmid: pUN4 with blaCTX-M-15 | 0.312 µg/mL (≈ 0.655 µM)
Escherichia coli ECOR42, plasmid: pUN4 with blaOXA-48 | 2 µg/mL (≈ 4.21 µM)
Escherichia coli ECOR47, plasmid: none | 0.0262 µg/mL (≈ 0.0552 µM)
Escherichia coli ECOR47, plasmid: pUN4 empty | 0.0225 µg/mL (≈ 0.0473 µM)
Escherichia coli ECOR47, plasmid: pUN4 with blaCTX-M-15 | 0.207 µg/mL (≈ 0.435 µM)
Escherichia coli ECOR47, plasmid: pUN4 with blaOXA-48 | 3.33 µg/mL (≈ 7.01 µM)
Escherichia coli ECOR49, plasmid: none | 0.0488 µg/mL (≈ 0.103 µM)
Escherichia coli ECOR49, plasmid: pUN4 empty | 0.015 µg/mL (≈ 0.0315 µM)
Escherichia coli ECOR49, plasmid: pUN4 with blaCTX-M-15 | 0.0658 µg/mL (≈ 0.138 µM)
Escherichia coli ECOR49, plasmid: pUN4 with blaOXA-48 | 1.5 µg/mL (≈ 3.15 µM)
Escherichia coli ECOR53, plasmid: none | 0.015 µg/mL (≈ 0.0315 µM)
Escherichia coli ECOR53, plasmid: pUN4 empty | 0.015 µg/mL (≈ 0.0315 µM)
Escherichia coli ECOR53, plasmid: pUN4 with blaCTX-M-15 | 0.237 µg/mL (≈ 0.498 µM)
Escherichia coli ECOR53, plasmid: pUN4 with blaOXA-48 | 6 µg/mL (≈ 12.6 µM)
Escherichia coli ECOR61, plasmid: none | 0.007 µg/mL (≈ 0.0147 µM)
Escherichia coli ECOR61, plasmid: pUN4 empty | 0.015 µg/mL (≈ 0.0315 µM)
Escherichia coli ECOR61, plasmid: pUN4 with blaCTX-M-15 | 0.205 µg/mL (≈ 0.431 µM)
Escherichia coli ECOR61, plasmid: pUN4 with blaOXA-48 | 0.188 µg/mL (≈ 0.394 µM)
Escherichia coli ECOR70, plasmid: none | 0.007 µg/mL (≈ 0.0147 µM)
Escherichia coli ECOR70, plasmid: pUN4 empty | 0.0137 µg/mL (≈ 0.0287 µM)
Escherichia coli ECOR70, plasmid: pUN4 with blaCTX-M-15 | 0.0975 µg/mL (≈ 0.205 µM)
Escherichia coli ECOR70, plasmid: pUN4 with blaOXA-48 | 1.17 µg/mL (≈ 2.45 µM)
Escherichia coli J53, plasmid: none | 0.03 µg/mL and 0.02 µg/mL
Escherichia coli J53, plasmid: pOXA-48 DEL (blaOXA-48 not expressed) | 0.015 µg/mL (≈ 0.0315 µM)
Escherichia coli J53, plasmid: pOXA-48 PV-B (blaOXA-48) | 1 µg/mL (≈ 2.1 µM)
Escherichia coli J53, plasmid: pOXA-48 PV-D (blaOXA-48) | 1 µg/mL (≈ 2.1 µM)
Escherichia coli J53, plasmid: pOXA-48 PV-E (blaOXA-48) | 1 µg/mL (≈ 2.1 µM)
Escherichia coli J53, plasmid: pOXA-48 PV-K (blaOXA-48) | 1 µg/mL (≈ 2.1 µM)
Escherichia coli J53, plasmid: pOXA-48 PV-O (blaOXA-48) | 1 µg/mL (≈ 2.1 µM)
Escherichia coli J53, plasmid: pOXA-48 TET (blaOXA-48 replaced by tetC) | 0.025 µg/mL (≈ 0.0526 µM)
Escherichia coli J53, plasmid: pOXA-48 WT (blaOXA-48) | 1 µg/mL (≈ 2.1 µM)
Escherichia coli J53, plasmid: pUN4 empty | 0.04 µg/mL and 0.0175 µg/mL
Escherichia coli J53, plasmid: pUN4 with blaCTX-M-15 | 0.118 µg/mL (≈ 0.249 µM)
Escherichia coli J53, plasmid: pUN4 with blaOXA-48 | 0.5 µg/mL and 1 µg/mL
Escherichia coli J53, plasmid: pUN4 with the DEL allele of blaOXA-48 | 0.02 µg/mL (≈ 0.0421 µM)
[1], plasmid: none | 0.00967 µg/mL (≈ 0.0203 µM)
[1], plasmid: pBAD18 empty | 0.011 µg/mL (≈ 0.0231 µM)
[1], plasmid: pBAD18 with blaCTX-M-14 | 0.417 µg/mL (≈ 0.876 µM)
[1], plasmid: pBAD18 with blaCTX-M-15 | 0.166 µg/mL (≈ 0.349 µM)
[1], plasmid: pBAD18 with blaKPC-2 | 0.667 µg/mL (≈ 1.4 µM)
[1], plasmid: pBAD18 with blaNDM-1 | 2 µg/mL (≈ 4.21 µM)
[1], plasmid: pBAD18 with blaOXA-1 | 0.118 µg/mL (≈ 0.249 µM)
[1], plasmid: pBAD18 with blaOXA-48 | 0.583 µg/mL (≈ 1.23 µM)
[1], plasmid: pBAD18 with blaTEM-1 | 0.124 µg/mL (≈ 0.261 µM)

C[C@@H]1O[C@@H]1P(=O)(O)O [fosfomycin]
[2]
Conditions | MIC [µg/mL]
plasmid: none | 0.583 (≈ 4.23 µM)
plasmid: pBAD18 empty | 0.5 (≈ 3.62 µM)
plasmid: pBAD18 with blaCTX-M-14 | 0.5 (≈ 3.62 µM)
plasmid: pBAD18 with blaCTX-M-15 | 0.5 (≈ 3.62 µM)
plasmid: pBAD18 with blaKPC-2 | 0.5 (≈ 3.62 µM)
plasmid: pBAD18 with blaNDM-1 | 0.5 (≈ 3.62 µM)
plasmid: pBAD18 with blaOXA-1 | 0.5 (≈ 3.62 µM)
plasmid: pBAD18 with blaOXA-48 | 0.5 (≈ 3.62 µM)
plasmid: pBAD18 with blaTEM-1 | 0.5 (≈ 3.62 µM)

C[C@@H](O)[C@H]1C(=O)N2C(C(=O)O)=C(SCCNC=N)C[C@H]12 [imipenem]
[1]
Conditions | MIC [µg/mL]
plasmid: none | 0.292 (≈ 0.974 µM)
plasmid: pBAD18 empty | 0.229 (≈ 0.766 µM)
plasmid: pBAD18 with blaCTX-M-14 | 0.75 (≈ 2.51 µM)
plasmid: pBAD18 with blaCTX-M-15 | 0.375 (≈ 1.25 µM)
plasmid: pBAD18 with blaKPC-2 | 1 (≈ 3.34 µM)
plasmid: pBAD18 with blaNDM-1 | 2.5 (≈ 8.35 µM)
plasmid: pBAD18 with blaOXA-1 | 0.583 (≈ 1.95 µM)
plasmid: pBAD18 with blaOXA-48 | 1.5 (≈ 5.01 µM)
plasmid: pBAD18 with blaTEM-1 | 0.458 (≈ 1.53 µM)

C[C@@H](O)[C@H]1C(=O)N2C(C(=O)O)=C(S[C@@H]3CN[C@H](C(=O)N(C)C)C3)[C@H](C)[C@H]12 [meropenem]
[1]
Conditions | MIC [µg/mL]
plasmid: none | 0.03 (≈ 0.0782 µM)
plasmid: pBAD18 empty | 0.03 (≈ 0.0782 µM)
plasmid: pBAD18 with blaCTX-M-14 | 0.06 (≈ 0.156 µM)
plasmid: pBAD18 with blaCTX-M-15 | 0.06 (≈ 0.156 µM)
plasmid: pBAD18 with blaKPC-2 | 1 (≈ 2.61 µM)
plasmid: pBAD18 with blaNDM-1 | 3.33 (≈ 8.69 µM)
plasmid: pBAD18 with blaOXA-1 | 0.552 (≈ 1.44 µM)
plasmid: pBAD18 with blaOXA-48 | 0.583 (≈ 1.52 µM)
plasmid: pBAD18 with blaTEM-1 | 0.06 (≈ 0.156 µM)

CO[C@H]1/C=C/O[C@@]2(C)Oc3c(C)c(O)c4c(O)c(c(/C=N/N5CCN(C)CC5)c(O)c4c3C2=O)NC(=O)/C(C)=C\C=C\[C@H](C)[C@H](O)[C@@H](C)[C@@H](O)[C@@H](C)[C@H](OC(C)=O)[C@@H]1C [rifampicin]
[1]
Conditions | MIC [µg/mL]
plasmid: none | 8 (≈ 9.72 µM)
plasmid: pBAD18 empty | 9.33 (≈ 11.3 µM)
plasmid: pBAD18 with blaCTX-M-14 | 7.33 (≈ 8.91 µM)
plasmid: pBAD18 with blaCTX-M-15 | 8 (≈ 9.72 µM)
plasmid: pBAD18 with blaKPC-2 | 8 (≈ 9.72 µM)
plasmid: pBAD18 with blaNDM-1 | 8 (≈ 9.72 µM)
plasmid: pBAD18 with blaOXA-1 | 7.33 (≈ 8.91 µM)
plasmid: pBAD18 with blaOXA-48 | 8 (≈ 9.72 µM)
plasmid: pBAD18 with blaTEM-1 | 8 (≈ 9.72 µM)

CN(C)[C@@H]1C(O)=C(C(N)=O)C(=O)[C@@]2(O)C(O)=C3C(=O)c4c(O)cccc4[C@@](C)(O)[C@H]3C[C@@H]12 [tetracycline]
[1]
Conditions | MIC [µg/mL]
plasmid: none | 0.833 (≈ 1.88 µM)
plasmid: pBAD18 empty | 0.5 (≈ 1.13 µM)
plasmid: pBAD18 with blaCTX-M-14 | 0.5 (≈ 1.13 µM)
plasmid: pBAD18 with blaCTX-M-15 | 0.5 (≈ 1.13 µM)
plasmid: pBAD18 with blaKPC-2 | 0.5 (≈ 1.13 µM)
plasmid: pBAD18 with blaNDM-1 | 0.5 (≈ 1.13 µM)
plasmid: pBAD18 with blaOXA-1 | 0.5 (≈ 1.13 µM)
plasmid: pBAD18 with blaOXA-48 | 0.5 (≈ 1.13 µM)
plasmid: pBAD18 with blaTEM-1 | 0.667 (≈ 1.5 µM)

COc1cc(Cc2cnc(N)nc2N)cc(OC)c1OC [trimethoprim]
[1]
Conditions | MIC [µg/mL]
plasmid: none | 0.417 (≈ 1.44 µM)
plasmid: pBAD18 empty | 0.375 (≈ 1.29 µM)
plasmid: pBAD18 with blaCTX-M-14 | 0.417 (≈ 1.44 µM)
plasmid: pBAD18 with blaCTX-M-15 | 0.458 (≈ 1.58 µM)
plasmid: pBAD18 with blaKPC-2 | 0.375 (≈ 1.29 µM)
plasmid: pBAD18 with blaNDM-1 | 0.417 (≈ 1.44 µM)
plasmid: pBAD18 with blaOXA-1 | 0.5 (≈ 1.72 µM)
plasmid: pBAD18 with blaOXA-48 | 0.417 (≈ 1.44 µM)
plasmid: pBAD18 with blaTEM-1 | 0.458 (≈ 1.58 µM)

— the supplement of paper PMC11148083
